Results from publication PMC3750173, “Ferredoxin Competes with Bacterial Frataxin in Binding to the Desulfurase IscS*^([image sbox.jpg])” (The Journal of Biological Chemistry, 2013).

Target: T1, IscS (E. coli desulfurase), wild type (E. coli, UniProt P0A6B7 1-404)
T1 construct: cysteine desulfurase IscS, E. coli; construct pET-11 IscS (EMBL-Hamburg); Dimer by SAXS; also called desulfurase IscS
T1 sequence: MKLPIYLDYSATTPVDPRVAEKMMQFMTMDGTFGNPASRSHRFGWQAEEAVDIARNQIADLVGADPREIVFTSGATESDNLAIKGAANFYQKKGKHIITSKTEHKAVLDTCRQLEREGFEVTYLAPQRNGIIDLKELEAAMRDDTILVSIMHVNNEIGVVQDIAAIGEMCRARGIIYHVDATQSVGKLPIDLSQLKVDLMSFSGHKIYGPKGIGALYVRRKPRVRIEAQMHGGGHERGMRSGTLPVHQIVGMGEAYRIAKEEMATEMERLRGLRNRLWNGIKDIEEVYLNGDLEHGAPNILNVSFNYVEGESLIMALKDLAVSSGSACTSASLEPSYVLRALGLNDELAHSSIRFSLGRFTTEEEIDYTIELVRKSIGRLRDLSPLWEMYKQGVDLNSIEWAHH
Test: BLI; competition: immobilised biotinylated holo-Fdx exposed to 10 μM IscS at 0-100 μM CyaY, in the presence of 30 μM IscU; 20 mM HEPES pH 7.5, 150 mM NaCl, 2 mM TCEP, 0.5 mg/ml BSA, 25 °C
Conditions: both partners purified

B1: IscU (Fe-S cluster scaffold protein) (natural protein, E. coli, UniProt P0ACD4 1-128, looked up)
chain: MAYSEKVIDHYENPRNVGSFDNNDENVGSGMVGAPACGDVMKLQIKVNDEGIIEDARFKTYGCGSAIASSSLVTEWVKGKSLDEAQAIKNTDIAEELELPPVKIHCSILAEDAIKAAIADYKSKREAK
notes: IscU, Fe-S cluster scaffold protein, E. coli
B1: binds.
